# Results published in PubChem BioAssay AID2147 (National Center for Advancing Translational Sciences (NCATS), 2009).
# Out of some 230,000 compounds screened, about 3,600 (1.6%) were called active. This list was built around the results that the source calls inconclusive (neither active nor inactive); the mix of calls is not that of the screen. Calls follow the shape of the dose curve; as a rule, active = well fitted inhibition curve with a large enough effect (not every such curve was filed as active); inconclusive = small, poorly fitted or top-dose-only effect, or another doubt; inactive = no such curve, though single readings can be large or run the other way. Potencies of inconclusive entries are doubtful fits and often do not repeat.
# Target: Lysine-specific demethylase 4E (Homo sapiens) (UniProt B2RXH2)
# Assay: qHTS Assay for Inhibitors of Human Jumonji Domain Containing 2E (JMJD2E)
# Conditions: JMJD2E catalytic domain, FDH-coupled NADH fluorescence (FDH is formaldehyde dehydrogenase); series mostly up to 57.1 µM
# Also: nearly all actives have a fitted effect of over 50% in size.
# Potency is read from the fitted curve at half-maximal effect; tags tell the direction and shape of the fitted curve.
# UniProt B2RXH2, sequence (B2RXH2 whole entry, looked up, the tested form may be a part): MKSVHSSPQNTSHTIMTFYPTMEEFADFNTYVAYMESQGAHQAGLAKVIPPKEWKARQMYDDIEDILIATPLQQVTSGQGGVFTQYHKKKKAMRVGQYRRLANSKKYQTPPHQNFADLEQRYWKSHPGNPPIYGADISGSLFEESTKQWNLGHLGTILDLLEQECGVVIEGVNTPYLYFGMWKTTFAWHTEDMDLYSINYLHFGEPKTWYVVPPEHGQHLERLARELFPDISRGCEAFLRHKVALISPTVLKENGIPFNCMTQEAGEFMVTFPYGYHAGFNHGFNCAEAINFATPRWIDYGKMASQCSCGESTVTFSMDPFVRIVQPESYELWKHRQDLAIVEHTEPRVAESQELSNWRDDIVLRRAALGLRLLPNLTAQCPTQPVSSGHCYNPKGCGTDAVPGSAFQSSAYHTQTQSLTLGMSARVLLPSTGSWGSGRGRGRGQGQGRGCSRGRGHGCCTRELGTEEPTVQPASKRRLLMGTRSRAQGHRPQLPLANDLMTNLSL
row,SMILES,Potency
1,COc1cc(Cl)cc(/C=N/NC(N)=O)c1O,"inconclusive: 25.1 µM [inhibitor, partial curve]"
2,CCCCN(C(=O)Cc1cccs1)c1nnc(-c2cccnc2)s1,"inconclusive: 25.1 µM [inhibitor, single point]"
3,CCN1CCc2c(OCC(=O)N3N=C(c4cccs4)CC3c3ccc(F)cc3)cccc2C1=O (centres undefined),"inconclusive: 31.6 µM [inhibitor, partial curve]"
4,CC(C)CCNC(=O)Cn1c2c(c(-c3ccccc3Cl)cc1=O)CCC2,"inconclusive: 28.2 µM [inhibitor, partial curve]"
5,COc1cc(/C=N/NC(=O)Cc2csc(N3CCOCC3)n2)cc(OC)c1O,"inconclusive: 31.6 µM [inhibitor, partial curve]"
6,CCOc1ccc(-c2cc(C(=O)N3CCN(c4ccccn4)CC3)c3ccccc3n2)cc1,"inconclusive: 25.1 µM [inhibitor, single point]"
7,O=c1cc(-c2ccccc2)nc(N2CCN(Cc3ccccc3)CC2)[nH]1,"inconclusive: 28.2 µM [inhibitor, single point]"
8,CCOC(=O)NC(=O)C(/C=N/c1sccc1C(=O)OC)=C(\C)O,"inconclusive: 39.8 µM [inhibitor, single point]"
9,CSc1ccc(/C=N/Nc2nc(C)cc(=O)[nH]2)cc1,"inconclusive: 35.5 µM [inhibitor, single point]"
10,COc1ccc(-c2n[nH]c(C)c2-c2cnn(-c3ccccc3)c2)c(O)c1C,"inconclusive: 25.1 µM [inhibitor, single point]"
11,Cn1cccc1/C=N/n1c(-c2ccc(Cl)cc2)n[nH]c1=S,inactive
12,CCCCn1c(SCC(N)=O)nc2c(sc3ccccc32)c1=O,"inconclusive: 28.2 µM [inhibitor, single point]"
13,O=C(CCS(=O)(=O)c1ccc(Br)s1)NCc1ccccc1,inactive
14,CC(C)(C)C(=O)NC(=S)NNC(=O)c1ccc(Cl)cc1Cl,"inconclusive: 15 µM [inhibitor, partial curve, poor fit]"
15,CCOC(=O)COc1ccc2c3c(c(=O)oc2c1C)CCC3,"inconclusive: 11.2 µM [inhibitor, partial curve]"
16,COc1ccc(C(C)=O)cc1COC(=O)CNC(=O)c1cc(C)cc(C)c1,inactive
17,Cc1nn(-c2ccccc2)c2sc(C(=O)c3c(N)n(C)c(=O)n(C)c3=O)cc12,"inconclusive: 39.8 µM [inhibitor, single point]"
18,COC(=O)C1=CN(CCCN2CCCC2=O)C=C(C(=O)OC)C1c1cccs1,"inconclusive: 25.1 µM [inhibitor, partial curve]"
19,COc1ccc2c(c1)nc(NCCCO)n2Cc1ccccc1,inactive
20,Cc1ccc(Nc2cc(C)nc(NCc3ccccc3)n2)cc1,"inconclusive: 35.5 µM [inhibitor, single point]"
21,Oc1ccc(NCc2ccccc2OCc2ccccc2)cc1,active: 11.2 µM
22,CC(=O)c1sc2nc(-c3ccc(C)cc3)c3c(c2c1N)CCCC3,"inconclusive: 28.2 µM [inhibitor, partial curve]"

row,SMILES,Potency
1,COc1ccc(-c2onc(C)c2-c2ccc(C(=O)OC(C)C)o2)c(O)c1,"inconclusive: 14.1 µM [inhibitor, partial curve]"
2,O=C(O)c1c2c(nc3ccccc13)-c1ccccc1CC2,"inconclusive: 35.5 µM [inhibitor, partial curve]"
3,CCCCNC(=O)Nc1nc2ccc(CC)cc2s1,inactive
4,CCc1ccc(-c2nc(CN3CCC(C(=O)NCCN(CC)c4ccccc4)CC3)c(C)o2)cc1,inactive
5,O=C(COC(=O)c1cccc(C(F)(F)F)c1)NCc1ccc(Cl)cc1,inactive
6,Cc1cc(S(=O)(=O)NC(C)C)ccc1OCC(=O)NCc1ccccc1,"inconclusive: 5.62 µM [inhibitor, partial curve, poor fit]"
7,CCOC(=O)C1=C(C)NC(C)=C(C(=O)OCC)C1C1=COCCO1,"inconclusive: 39.8 µM [inhibitor, single point]"
8,CC[C@H](C)[C@@H](NC(=O)O[C@H]1C(=O)c2cc(OC)ccc2O[C@@H]1c1ccc(OC)c(Br)c1)C(=O)OC,"inconclusive: 28.2 µM [inhibitor, partial curve]"
9,N#Cc1cnn(-c2ccc(F)cc2)c1N,"inconclusive: 31.6 µM [inhibitor, single point]"
10,O=C(CSc1ccccc1)Nc1nnc(/C=C/c2ccccc2)s1,"inconclusive: 28.2 µM [inhibitor, partial curve]"
11,C[C@H](NC(=O)c1nc[nH]c1C(=O)N[C@@H](Cc1ccccc1)C(=O)OCc1ccccc1)c1ccccc1,inactive
12,O=c1c2sccc2nc(SCc2cc(=O)n3cc(Br)ccc3n2)n1Cc1ccccn1,"inconclusive: 39.8 µM [inhibitor, single point]"
13,Cc1cc(=O)n2[nH]c(-c3ccco3)nc2n1,"inconclusive: 31.6 µM [inhibitor, single point]"
14,O=C(Nc1cc(C(F)(F)F)ccc1N1CCOCC1)C1Cc2ccccc2CN1C(=O)c1ccco1 (centres undefined),"inconclusive: 22.4 µM [inhibitor, single point]"
15,Cc1cc2ccccc2c(=O)n1CC(=O)NC1CCCCCC1,"inconclusive: 28.2 µM [inhibitor, single point]"
16,Cc1nc2c(sc3nc4c(cc32)COC(C)(C)C4)c(=O)o1,"inconclusive: 25.1 µM [inhibitor, single point]"
17,CCCNC(=O)c1ccc2c(=O)c(O)c(-c3ccsc3)[nH]c2c1,"inconclusive: 39.8 µM [inhibitor, single point]"
18,COc1ccc(/C=N/OCC(=O)N2CCCC2)c(OC)c1,inactive
19,O=C(C1=C[C@H](C2CC2)C[C@H](OCCCCO)O1)N1CCOCC1,inactive
20,O=c1ccc2ccc(O[C@@H]3O[C@H](CO)[C@@H](O)[C@H](O)[C@H]3O)c(O)c2o1,inactive
21,COc1cc(OC)cc(C(=O)Nc2nc3ccc(S(C)(=O)=O)cc3s2)c1,"inconclusive: 35.5 µM [inhibitor, single point]"
22,COC(=O)N1CCN(c2ccc(C)c(C)c2)CC1,inactive
